Measurements reported in the supplement of paper PMC12217912.
The other results are listed elsewhere or left out. The full chains were built here from the parent and the listed change. Inactive controls read about 0.05.

B1: TEV protease; numbered along this chain (parent)
chain: MGESLFKGPRDYNPISSSICHLTNESDGHTTSLYGIGFGPFIITNKHLFRRNNGTLVVQSLHGVFKVKDTTTLQQHLVDGRDMIIIRMPKDFPPFPQKLKFREPQREERICLVTTNFQTKSMSSMVSDTSCTFPSGDGIFWKHWIQTKDGQCGSPLVSTRDGFIVGIHSASNFTNTNNYFTSVPKNFMELLTNQEAQQWVSGWRLNADSVLWGGHKVFMVKPEEPFQPVKEATQL

Variants of: B1
Assay: raw area under fraction-flipped curve 0-4 h after induction (AUC4h, not background-subtracted), DNA-recorder readout of cleavage of the substrate (dimensionless); higher = more cleavage of the substrate by the protease variant
Settings: temperature: 34 °C; time window: 0-4 h after rhamnose induction
Procedure: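 In vivo DNA recorder in E. coli TOP10(DE3) ΔrhaA at 34 °C. Each TEVp single-site mutant (parent TEVp 0) is paired with a single-site variant of the 7-mer TEVs (canonical ENLYFQ|S). The substrate sits between flexible linkers in a Bxb1-sfGFP-TEVs-SsrA fusion, so cleavage stabilises Bxb1 and speeds flipping of a recombination array, read by NGS. The value is the raw area under the fraction-flipped curve over 0-4 h after rhamnose induction (AUC4h), with ≥20 reads per time point. It is not background-subtracted; inactive controls average about 0.047.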
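Further: Bxb1 expression induced with 0.2% (w/v) L-rhamnose at OD600 near 0.5, cultures sampled hourly, flipped fraction per protease–substrate barcode pair counted by paired-end Illumina sequencing.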

Variant | area with substrate DNLYFQS | area with substrate GNLYFQS | area with substrate HNLYFQS | area with substrate INLYFQS | area with substrate PNLYFQS | area with substrate WNLYFQS | area with substrate YNLYFQS | area with substrate FNLYFQS | area with substrate KNLYFQS | area with substrate LNLYFQS | area with substrate MNLYFQS | area with substrate QNLYFQS | area with substrate SNLYFQS | area with substrate TNLYFQS | area with substrate VNLYFQS | area with substrate NNLYFQS | area with substrate RNLYFQS
S130A | 0.082 | 0.105 | 0.0433 | 0.0657 | 0.0607 | 0.0618 | 0.0647 | – | – | – | – | – | – | – | – | – | –
S130F | 0.0751 | – | 0.0541 | 0.0916 | 0.0572 | 0.0621 | – | 0.0735 | 0.0585 | 0.0561 | 0.0839 | 0.0669 | 0.0523 | 0.0663 | 0.058 | – | –
S130T | 0.08 | – | 0.0653 | – | 0.0634 | – | – | 0.0812 | 0.0713 | – | – | – | 0.0722 | 0.0728 | – | – | –
C131A | 0.105 | 0.0604 | – | – | – | – | – | – | – | 0.0624 | – | – | – | – | – | 0.06 | –
C131L | 0.0775 | – | – | – | – | – | 0.0597 | – | – | – | – | – | – | – | – | – | –
F133S | 0.0791 | – | 0.0582 | 0.0632 | 0.0633 | 0.0657 | 0.0569 | – | 0.0534 | – | 0.0592 | 0.0786 | – | 0.0575 | – | – | –
P134A | 0.0844 | 0.053 | – | 0.0554 | – | – | – | – | – | – | 0.0619 | – | 0.0639 | – | – | 0.0667 | –
P134M | 0.0674 | – | 0.0752 | 0.056 | – | – | – | – | 0.0782 | 0.0584 | 0.0532 | 0.0683 | – | – | – | – | –
S135T | 0.0601 | 0.0368 | 0.069 | 0.0582 | 0.0512 | 0.0547 | – | 0.0649 | 0.059 | – | 0.0688 | – | 0.0694 | 0.0678 | – | – | –
D137M | 0.0769 | 0.0695 | 0.068 | 0.0633 | 0.0597 | 0.0863 | 0.0688 | 0.0615 | 0.0624 | 0.0584 | – | 0.0685 | 0.0657 | 0.0657 | 0.0768 | – | –
G138E | 0.0655 | – | 0.0559 | 0.0643 | – | 0.0611 | – | – | 0.0617 | 0.0564 | – | – | – | – | – | – | –
I139K | 0.036 | – | 0.0459 | 0.0503 | – | 0.0826 | 0.0569 | – | 0.0685 | – | 0.0597 | – | – | 0.0397 | – | – | 0.0779
W141D | 0.0588 | 0.0545 | – | – | 0.057 | 0.0514 | – | – | – | 0.0435 | – | – | – | – | – | – | –
W141L | 0.0529 | 0.0497 | 0.0493 | 0.0509 | – | 0.0452 | 0.0504 | – | – | 0.0555 | 0.0353 | – | – | – | – | 0.0527 | –
H143Q | 0.0695 | 0.0525 | 0.0543 | 0.0467 | 0.0616 | 0.0451 | 0.0444 | – | 0.0681 | 0.0752 | 0.0446 | – | 0.0487 | 0.0556 | 0.0705 | – | 0.057
H143Y | 0.128 | – | 0.0558 | – | 0.0633 | 0.0694 | 0.0707 | – | – | 0.0405 | 0.0654 | 0.048 | 0.0698 | – | – | 0.0384 | –
I145A | 0.104 | 0.0443 | 0.0813 | – | 0.0816 | – | 0.0563 | – | – | 0.0667 | – | – | 0.075 | 0.0835 | 0.0422 | – | –
I145S | 0.113 | – | 0.0692 | 0.0632 | 0.0649 | 0.069 | – | – | – | – | 0.0728 | – | 0.0828 | 0.0753 | – | 0.0791 | 0.0812
D149E | 0.0575 | 0.0686 | 0.0554 | 0.0707 | 0.0585 | 0.061 | 0.0567 | – | – | 0.0486 | 0.0441 | – | – | 0.0672 | – | – | –
